Measured values as given in paper PMC4336329 (PLoS ONE, 2015).
Among all 310,000 compounds or so, about 14,000 (4.5%) showed an effect of 50% or more. Effects have a minus sign here. The list shows a part of the results.
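Further: peak tail current of the secondary pulse compared with the same well before compound.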

The compounds below were run against human ether-à-go-go-related gene (hERG) potassium channel (human, UniProt Q12809) (assay: primary screen, population patch clamp on CHO cells stably expressing hERG).
Chain of human ether-à-go-go-related gene (hERG) potassium channel (Q12809 whole entry, looked up): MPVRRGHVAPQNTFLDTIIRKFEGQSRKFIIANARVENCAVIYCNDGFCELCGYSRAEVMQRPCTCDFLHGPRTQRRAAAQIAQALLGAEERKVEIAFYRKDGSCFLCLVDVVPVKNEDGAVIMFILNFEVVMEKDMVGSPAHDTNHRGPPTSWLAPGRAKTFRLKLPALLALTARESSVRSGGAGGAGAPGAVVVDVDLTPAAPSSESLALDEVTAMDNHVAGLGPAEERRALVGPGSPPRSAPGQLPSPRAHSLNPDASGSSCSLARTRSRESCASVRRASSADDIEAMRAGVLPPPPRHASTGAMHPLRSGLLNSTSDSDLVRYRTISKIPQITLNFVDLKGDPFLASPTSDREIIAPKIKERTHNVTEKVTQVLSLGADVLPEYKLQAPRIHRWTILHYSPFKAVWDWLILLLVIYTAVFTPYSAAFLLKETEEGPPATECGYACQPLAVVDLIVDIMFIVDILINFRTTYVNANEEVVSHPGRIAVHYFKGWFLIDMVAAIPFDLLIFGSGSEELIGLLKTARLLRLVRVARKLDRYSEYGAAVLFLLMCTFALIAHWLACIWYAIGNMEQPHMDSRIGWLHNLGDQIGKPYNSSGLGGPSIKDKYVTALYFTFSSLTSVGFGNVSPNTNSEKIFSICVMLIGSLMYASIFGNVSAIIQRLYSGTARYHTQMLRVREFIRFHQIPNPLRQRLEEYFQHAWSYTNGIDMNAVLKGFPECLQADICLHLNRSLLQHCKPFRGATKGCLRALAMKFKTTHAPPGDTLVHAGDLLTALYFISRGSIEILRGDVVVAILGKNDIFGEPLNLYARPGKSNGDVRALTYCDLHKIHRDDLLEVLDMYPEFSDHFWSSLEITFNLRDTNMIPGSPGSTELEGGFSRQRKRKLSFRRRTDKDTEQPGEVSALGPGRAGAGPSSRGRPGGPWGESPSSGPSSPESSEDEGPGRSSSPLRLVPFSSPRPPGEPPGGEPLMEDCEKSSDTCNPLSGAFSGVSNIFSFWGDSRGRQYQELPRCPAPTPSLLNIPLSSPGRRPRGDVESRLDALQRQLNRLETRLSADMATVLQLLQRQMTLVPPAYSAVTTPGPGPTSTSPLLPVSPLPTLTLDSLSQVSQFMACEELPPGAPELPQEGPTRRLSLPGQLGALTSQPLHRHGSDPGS
In the case of `Oc1ccccc1C=NC1=NN(c2cccc(C(F)(F)F)c2)CC1`, the “hERG current change (%, negative = inhibition) at 10uM” value is reported as 3.42%. `CNC(=O)COC(=O)c1ccc(Cl)c(S(N)(=O)=O)c1` was tested, and the “hERG current change (%, negative = inhibition) at 10uM” value was -28.8%. With `O=C(CCC(=O)N1CCCc2ccccc21)N1CCN(S(=O)(=O)c2ccccc2)CC1` the “hERG current change (%, negative = inhibition) at 10uM” value was -9.26%. In the case of `Cc1ccsc1C(=O)C1CCCN(Cc2cccn2-c2ccccn2)C1` (stereo not drawn), the “hERG current change (%, negative = inhibition) at 10uM” value is reported as -75.8%. With `COc1ccc2cc(C(C)C(=O)NC3CCC(O)CC3)ccc2c1` (stereo not drawn) the “hERG current change (%, negative = inhibition) at 10uM” value was 4.4%. `O=C(NCC1CCCO1)c1cccc(S(=O)(=O)Nc2ccc(F)cc2)c1` (stereo not drawn) was tested, and the “hERG current change (%, negative = inhibition) at 10uM” value was -3.75%. `CCCOc1ccc(Cc2c(O)nc(SC)[nH]c2=O)cc1` was tested, and the “hERG current change (%, negative = inhibition) at 10uM” value was 5.9%. `CC(C)OC(=O)CC1C(=O)NCCN1C(=S)NC(=O)c1cccs1` (stereo not drawn) was tested, and the “hERG current change (%, negative = inhibition) at 10uM” value was 16.3%. In the case of `Cc1ccc(-c2nnc(Cc3ccc([N+](=O)[O-])cc3)o2)cc1`, the “hERG current change (%, negative = inhibition) at 10uM” value is reported as -64.9%. For `N#Cc1ccc(OCC(=O)NNC(=S)NC2CCCCC2)cc1`, the “hERG current change (%, negative = inhibition) at 10uM” value was -44.3%. `O=C(NCC1CCCN(Cc2ccccc2F)C1)c1cccc(C(F)(F)F)c1` (stereo not drawn) was tested, and the “hERG current change (%, negative = inhibition) at 10uM” value was -52.1%. For `CCn1c(=O)c(C(=O)NC(C)c2ccccc2)c(O)c2ccccc21` (stereo not drawn), the “hERG current change (%, negative = inhibition) at 10uM” value was 19%. In the case of `Cc1ccc(-c2c(C)sc(=NC(=O)c3ccco3)n2C)cc1`, the “hERG current change (%, negative = inhibition) at 10uM” value is reported as 4.73%. For `COc1cc(/C=N/Nc2ccc(Cl)nn2)cc(OC)c1O`, the “hERG current change (%, negative = inhibition) at 10uM” value was 14.8%. `COc1ccc(Cn2c(N)c(C#N)c3nc4ccccc4nc32)cc1OC` was tested, and the “hERG current change (%, negative = inhibition) at 10uM” value was 5.44%. For `CS(=O)(=O)c1ccc(Cl)c(NC(=O)CCCSc2ccccc2)c1`, the “hERG current change (%, negative = inhibition) at 10uM” value was -6.39%. `COc1ccc(C2CC(=O)c3c(C)nc(N4CCN(Cc5ccccc5)CC4)nc3C2)cc1OC` (stereo not drawn) was tested, and the “hERG current change (%, negative = inhibition) at 10uM” value was 25.3%. `O=C(Cc1ccc([N+](=O)[O-])cc1)N/N=C/c1ccccc1F` was tested, and the “hERG current change (%, negative = inhibition) at 10uM” value was 1.7%. `CC1CCN(S(=O)(=O)c2ccc3[nH]cc(C(=O)NCCN4CCOCC4)c(=O)c3c2)CC1` was tested, and the “hERG current change (%, negative = inhibition) at 10uM” value was 4.43%. With `CCN1CCc2c(sc(NC(=O)C3COc4ccccc4O3)c2C(N)=O)C1.Cl` (stereo not drawn) the “hERG current change (%, negative = inhibition) at 10uM” value was -20.8%. With `O=C(NC(Cc1ccccc1)C(=O)O)/C(=C/c1cccc([N+](=O)[O-])c1)NC(=O)c1cccc(Br)c1` (stereo not drawn) the “hERG current change (%, negative = inhibition) at 10uM” value was 6.35%. With `CCOc1ccc(-n2nc3c(SCCN4CCCC4)nnc(C)c3c2C)cc1` the “hERG current change (%, negative = inhibition) at 10uM” value was -37.5%. With `O=C(NCc1nc2ccccc2[nH]1)c1cccs1` the “hERG current change (%, negative = inhibition) at 10uM” value was 5.55%. With `Cc1ccc(/C=C/C(=O)Nc2ccc([N+](=O)[O-])cc2)o1` the “hERG current change (%, negative = inhibition) at 10uM” value was -1.05%.
